In all, about 110,000 compounds went through this assay and about 230 (0.21%) showed an effect of 50% or more. Some of the results follow.
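Further: 30 min substrate incubation versus DMSO and 10 µM JCP410 controls.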

The target of this experiment is DPAP1 (Plasmodium falciparum, UniProt Q8IIJ9). The experiment in a line: primary screen, percent inhibition; read by cleavage of a fluorogenic dipeptide substrate; higher = more effect of the substance. Also noted: species or system P. falciparum D10 trophozoite lysates; single well.
DPAP1, sequence (Q8IIJ9 whole entry, looked up): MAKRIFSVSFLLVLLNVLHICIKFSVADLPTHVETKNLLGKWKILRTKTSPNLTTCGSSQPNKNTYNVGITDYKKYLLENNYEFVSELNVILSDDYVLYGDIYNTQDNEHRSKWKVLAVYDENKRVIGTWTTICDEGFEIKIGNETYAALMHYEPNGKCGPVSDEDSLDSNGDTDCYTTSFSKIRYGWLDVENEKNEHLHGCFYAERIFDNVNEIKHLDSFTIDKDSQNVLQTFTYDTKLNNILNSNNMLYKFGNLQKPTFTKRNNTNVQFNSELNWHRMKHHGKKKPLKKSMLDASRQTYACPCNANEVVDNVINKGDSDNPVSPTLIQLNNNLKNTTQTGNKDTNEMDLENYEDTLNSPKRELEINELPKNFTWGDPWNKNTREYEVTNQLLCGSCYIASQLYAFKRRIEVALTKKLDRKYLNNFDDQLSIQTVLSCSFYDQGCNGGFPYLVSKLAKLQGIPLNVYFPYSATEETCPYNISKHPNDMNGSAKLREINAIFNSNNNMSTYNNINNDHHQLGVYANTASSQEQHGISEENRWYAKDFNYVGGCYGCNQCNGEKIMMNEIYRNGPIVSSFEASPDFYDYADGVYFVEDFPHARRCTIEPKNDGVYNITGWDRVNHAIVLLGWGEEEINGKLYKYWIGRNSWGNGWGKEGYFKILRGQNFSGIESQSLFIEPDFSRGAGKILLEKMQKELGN
For `COc1ccc(S(=O)(=O)N(CC(=O)N2CCCCCC2)c2ccc(C)cc2)cc1Br`, the “% Inhibition @ 10 uM” value was -1.59%.
The same measure for `COc1ccc(C2CC(c3ccc(Br)cc3)=NN2C(=O)CCC(=O)O)cc1OC` (stereo not drawn): 1.65%; for `O=C(NCCCc1nc2ccccc2[nH]1)c1ccc(F)cc1`: 0.032%; for `N#CC1=C(N)OC2=C(C(=O)CCC2)C1CCc1ccccc1` (stereo not drawn): 2.51%.
On to `Cc1ccccc1OCCSc1nc(-c2ccccc2)nc2cc(=O)[nH]n12`, for which the “% Inhibition @ 10 uM” value was 5.62%.
The same measure for `O=C1N=C(N2CCOCC2)S/C1=C/c1cccc2ccccc12`: 3.21%.
The result for `COc1cc(NC2C3CC4CC(C3)CC2C4)cc(OC)c1OC` (stereo not drawn) reads 1.57%; that for `CCOC(=O)C1=C(C(F)(F)F)Nc2ncnn2C1c1cc(OC)c(OC)cc1OC` (stereo not drawn), 1.73%; that for `CC(CCc1ccccc1)NC(=O)CCCn1ncn2c(cc3occc32)c1=O` (stereo not drawn), 1.38%.
For the molecule `COc1cc2c(cc1OC)C(C(=O)N(C)Cc1ccccc1)C(c1cccnc1)N(C)C2=O` (stereo not drawn), the “% Inhibition @ 10 uM” value stood at 2.59%.
The result for `Cc1cc(OCc2ccc(C3C(C#N)=C(N)OC4=C3C(=O)CC(C)(C)C4)o2)ccc1Cl` (stereo not drawn) reads -0.463%; that for `COc1cc(OC)c(CN(C)CCN(C)C)cc1Br`, -1.05%.
Take `CCOc1ccc2nc(C)c(Cc3ccc(OC)cc3)c(S)c2c1`: the “% Inhibition @ 10 uM” value was determined as 1.72%.
The same measure for `Cc1ccc([N+](=O)[O-])cc1NS(=O)(=O)c1cc(Cl)ccc1Cl`: 1.63%.
The same measure for `Cc1sc2[nH]c(C(=O)c3ccccc3)nc2c1C`: -1.04%; for `Oc1ncnc2scc(-c3cccs3)c12`: 4.33%.
The same measure for `O=C(NCc1ccccc1)c1cc(-c2ccncc2)nc2ccc(S(=O)(=O)N3CCOCC3)cc12`: -2.72%; for `Cc1ccc(S(=O)Cc2ccc(C(=O)O)o2)cc1` (stereo not drawn): 9.23%.
In the case of `CCCSCCCNC(=O)c1c(C)nn(-c2ccccc2)c1-n1cccc1`, the “% Inhibition @ 10 uM” value is reported as 1.8%.
The same measure for `CCc1ccccc1NC(=O)c1ccccc1OC`: -3.49%.
The same measure for `Nc1nonc1-n1nnc(C(=O)O)c1CSc1ccccc1`: 1.62%.
The same measure for `CCN(CC)S(=O)(=O)c1cc(C(=O)Nc2ccc(Br)cc2)ccc1C`: -13.5%; for `CN(C)c1ccc(-c2nc3cc(NC(=O)c4ccccc4)ccc3o2)cc1`: 1.62%.
As for `Cc1noc(/C=C/N(C)C)c1S(=O)(=O)N1CCCCC1`, the “% Inhibition @ 10 uM” value stood at 17.5%.
The result for `O=C(CN1C(=O)c2ccccc2C1=O)NCCCN1CCOCC1` reads -5.28%; that for `O=S(=O)(NCCOC12CC3CC(CC(C3)C1)C2)c1ccc2nc(O)sc2c1`, -2.19%; that for `CCOC(=O)N1CCC(NC(=O)c2sc(-n3cccc3)nc2C)CC1`, -2.37%.
The result for `CCOC(=O)CSC1=C(C#N)C2(CCCC2)C(C#N)C(=O)N1` (stereo not drawn) reads 1.42%; that for `O=C(NCc1ccccn1)c1ccc(Cl)cc1`, 4.89%.
The same measure for `Cc1ccc(Cn2c(CN3CC(C)OC(C)C3)nc3c2c(=O)[nH]c(=O)n3C)cc1` (stereo not drawn): -3.14%; for `CCOC(=O)c1ccc2nc(C(F)(F)F)nc(N3CC(C)CC(C)C3)c2c1` (stereo not drawn): -1.11%.
Turning to `CN(Cc1ccccc1)Cc1ccccc1O`, the “% Inhibition @ 10 uM” value is given as -1.78%.
The result for `COc1ccc(C(=O)NCc2nnc(SCC(=O)NC3CCCCC3)o2)cc1` reads 76.6%; that for `COc1cccc(/C=C2\SC(Nc3ccc(F)cc3)=NC2=O)c1`, 6.79%.
The same measure for `Cc1ccsc1/C=C1\CN(C)C/C(=C\c2sccc2C)C1=O`: 6.89%; for `COc1ccc(C2c3cc(OC)c(OC)cc3CC(=O)N2c2ccc(C(=O)O)cc2)cc1` (stereo not drawn): 12.4%.
In the case of `Cc1ccc(-c2cc(C(=O)NCc3cn(C)nc3C)c3ccccc3n2)cc1C`, the “% Inhibition @ 10 uM” value was -1.1%.
The result for `CCOC(=O)N1CCC(N2CCN(S(=O)(=O)c3ccc(OC)cc3)CC2)CC1` reads -5.28%; that for `O=C(/C(=C/Nc1cccc(Cl)c1)C(=O)C(F)(F)F)c1cccs1`, 1.35%.
The result for `C=CCNC(=O)/C(C#N)=C/c1c(Oc2cccc(C)c2C)nc2c(C)cccn2c1=O` reads 2%.
The same measure for `N#CCNC(=O)[C@H](Cc1ccc(OCc2ccccc2)cc1)NC(=O)c1ccccc1`: -5.21%.
As to `Cc1cc(-c2ccc(C)c(S(=O)(=O)N3CC=C(c4ccccc4)CC3)c2)on1`, the “% Inhibition @ 10 uM” value turned out to be 3.2%.
The same measure for `CCc1nonc1NC(=O)c1oc2c(C)c(C)ccc2c1C`: 1.67%; for `COc1ccc(C(=O)C(=O)c2ccc(OC)c(OC)c2)cc1OC`: 1.78%; for `O=C(c1ccccc1)c1cc(Cl)ccc1NC(=O)C1COc2ccccc2O1` (stereo not drawn): -5.1%.
The same measure for `CCOC(=O)N1CCN(Cc2ccccc2Br)CC1`: -0.0494%.
The same measure for `CCN1C(=O)N/C(=C/c2ccc(OCc3cccc(C(=O)O)c3)c(Br)c2)C1=O`: -17.7%; for `Cc1onc(-c2ccccc2Cl)c1C(=O)Nc1sc(C)c(C)c1C(N)=O`: 4.88%; for `COC(=O)Nc1ccccc1C(=O)N1CCN(Cc2ccccc2)CC1`: 7.22%.
For the molecule `COc1ccc(C2=CC(c3ccc(F)cc3)n3ncnc3N2)cc1OC` (stereo not drawn), the “% Inhibition @ 10 uM” value stood at 12.6%.
The same measure for `O=C(CN1C(=O)C2C3C=CC(C3)C2C1=O)N1CCN(C(c2ccccc2)c2ccc(Cl)cc2)CC1` (stereo not drawn): 7.29%; for `COc1cc(C(=O)NC(C)C(=O)O)cc(OC)c1OC` (stereo not drawn): 0.035%.
In the case of `O=S(=O)(Nc1cccc(Cl)c1Cl)c1ccc(F)cc1`, the “% Inhibition @ 10 uM” value is -3.44%.
Turning to `CC1CCCC(NC(=O)c2ccc(C/N=c3/c(N4CCCC4)c(O)c3=O)cc2)C1C` (stereo not drawn), the “% Inhibition @ 10 uM” value is -3.96%.
The same measure for `Cc1nc2c([nH]1)OC(N)=C(C#N)C2c1ccccc1F` (stereo not drawn): 2.76%.
The same measure for `COc1ccc(OC)c(S(=O)(=O)N2CCN(C(=O)c3ccco3)CC2)c1`: -7.34%; for `O=C(Cn1cc(SCc2ccccc2)c2ccccc21)N1CCCC1`: -2.55%.
The same measure for `Oc1c2c(nc3cc(-c4ccccc4)nn13)CCC2`: -9.37%.
For `CCCCc1[nH]nc2c1C(c1ccc(N(C)C)cc1)C(C#N)=C(N)O2` (stereo not drawn), the “% Inhibition @ 10 uM” value was -2.77%.
The same measure for `O=c1cc(CSc2cccc3cccnc23)c2ccc(O)cc2o1`: 0.032%; for `N#CCNC(=O)[C@H](CC1CCCCC1)NC(=O)CCC(=O)O`: -6.98%; for `CC1(CC(NC(=O)OCc2ccccc2)C(=O)NCC#N)CCCC1` (stereo not drawn): -6.46%.
With `Cc1ccc(S(=O)(=O)NCCC(=O)NCCC(C)C)cc1`, the “% Inhibition @ 10 uM” value was 1.42%.
